Results reported in article PMC9911399, “Two distinct binding modes provide the RNA-binding protein RbFox with extraordinary sequence specificity”.
Positions count from the first letter of the chain named. The list shows a part of the results.

T1: RBFOX1 RRM RbFoxmut (Fox-RRM*) (Homo sapiens, UniProt Q9NWB1 109-208, R118D;E147R;N151S;E152T)
T1 sequence: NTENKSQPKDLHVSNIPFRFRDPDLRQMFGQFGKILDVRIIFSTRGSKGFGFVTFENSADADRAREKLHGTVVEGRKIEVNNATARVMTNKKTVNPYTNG

B1: CCCUAAA (DNA:RNA)
RNA: GGGAGACCGGAAUUCAGAUUGUCCCCCUAAAUUAAAUCCCGUCGUAGCCACCA
DNA 1: CAATCTGAATTCCGGTCTCCC
DNA 2: TGGTGGCTACGACGGGATT
B2: GAUAUGG (DNA:RNA)
RNA: GGGAGACCGGAAUUCAGAUUGUCCGAUAUGGUUAAAUCCCGUCGUAGCCACCA
DNA 1: CAATCTGAATTCCGGTCTCCC
DNA 2: TGGTGGCTACGACGGGATT
B3: GGAUCCA (DNA:RNA)
RNA: B1 RNA with C25G, C26G, C27A, A29C, A30C
DNA 1: CAATCTGAATTCCGGTCTCCC
DNA 2: TGGTGGCTACGACGGGATT
B4: CCUUAGU (DNA:RNA)
RNA: B1 RNA with C27U, A30G, A31U
DNA 1: CAATCTGAATTCCGGTCTCCC
DNA 2: TGGTGGCTACGACGGGATT
B5: AAUCGUC (DNA:RNA)
RNA: B2 RNA with G25A, A28C, U29G, G30U, G31C
DNA 1: CAATCTGAATTCCGGTCTCCC
DNA 2: TGGTGGCTACGACGGGATT
B6: CCACGGU (DNA:RNA)
RNA: B1 RNA with C27A, U28C, A29G, A30G, A31U
DNA 1: CAATCTGAATTCCGGTCTCCC
DNA 2: TGGTGGCTACGACGGGATT
B7: UAGGCUU (DNA:RNA)
RNA: B2 RNA with G25U, U27G, A28G, U29C, G30U, G31U
DNA 1: CAATCTGAATTCCGGTCTCCC
DNA 2: TGGTGGCTACGACGGGATT
B8: CGGAGCA (DNA:RNA)
RNA: B1 RNA with C26G, C27G, U28A, A29G, A30C
DNA 1: CAATCTGAATTCCGGTCTCCC
DNA 2: TGGTGGCTACGACGGGATT
B9: AGCGGUG (DNA:RNA)
RNA: B1 RNA with C25A, C26G, U28G, A29G, A30U, A31G
DNA 1: CAATCTGAATTCCGGTCTCCC
DNA 2: TGGTGGCTACGACGGGATT

Molecular target: T1, RBFOX1 RRM RbFoxmut (Fox-RRM*)
Experiment: EMSA; HiTS-Eq, 1 nM pool, 10 min; buffer printed only for the single-RNA assays: 10 mM Tris pH 7.5, 150 mM NaCl, 3.4 mM EDTA, 0.001% NP-40, 30 C
Settings: tags: His6 N-terminal (pET28a); label: 5' 32P
Method in brief: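 Purified wild-type or mutant RbFox RRM at increasing concentrations was equilibrated with 1 nM of 5′-radiolabelled RNA carrying 7 randomized nucleotides for 10 min in 50 µL. Unbound RNA was separated by 8% native PAGE and sequenced. Relative association constants came from read-count changes of each RNA species compared with the control reaction, normalised to the cognate motif.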

Binder	binding signal
B1	0.063 KA relative to UGCAUGU
B2	0.115 KA relative to UGCAUGU
B3	0.147 KA relative to UGCAUGU
B4	0.124 KA relative to UGCAUGU
B5	0.0729 KA relative to UGCAUGU
B6	0.115 KA relative to UGCAUGU
B7	0.0783 KA relative to UGCAUGU
B8	0.12 KA relative to UGCAUGU
B9	0.144 KA relative to UGCAUGU
